Laboratory results published in the supplement of paper PMC12217912.
The other results are listed elsewhere or left out. The full chains were built here from the parent and the listed change. Inactive controls read about 0.05.

B1: TEV protease; numbered along this chain (parent)
chain: MGESLFKGPRDYNPISSSICHLTNESDGHTTSLYGIGFGPFIITNKHLFRRNNGTLVVQSLHGVFKVKDTTTLQQHLVDGRDMIIIRMPKDFPPFPQKLKFREPQREERICLVTTNFQTKSMSSMVSDTSCTFPSGDGIFWKHWIQTKDGQCGSPLVSTRDGFIVGIHSASNFTNTNNYFTSVPKNFMELLTNQEAQQWVSGWRLNADSVLWGGHKVFMVKPEEPFQPVKEATQL

Variants of: B1
Test: raw area under fraction-flipped curve 0-4 h after induction (AUC4h, not background-subtracted), DNA-recorder readout of cleavage of the substrate (dimensionless); higher = more cleavage of the substrate by the protease variant
Conditions: temperature: 34 °C; time window: 0-4 h after rhamnose induction
Description: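 In vivo DNA recorder in E. coli TOP10(DE3) ΔrhaA at 34 °C. Each TEVp single-site mutant (parent TEVp 0) is paired with a single-site variant of the 7-mer TEVs (canonical ENLYFQ|S). The substrate sits between flexible linkers in a Bxb1-sfGFP-TEVs-SsrA fusion, so cleavage stabilises Bxb1 and speeds flipping of a recombination array, read by NGS. The value is the raw area under the fraction-flipped curve over 0-4 h after rhamnose induction (AUC4h), with ≥20 reads per time point. It is not background-subtracted; inactive controls average about 0.047.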
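Also: Bxb1 expression induced with 0.2% (w/v) L-rhamnose at OD600 near 0.5, cultures sampled hourly, flipped fraction per protease–substrate barcode pair counted by paired-end Illumina sequencing.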

Variant	area with substrate ENAYFQS	area with substrate ENCYFQS	area with substrate ENHYFQS	area with substrate ENIYFQS	area with substrate ENKYFQS	area with substrate ENQYFQS	area with substrate ENRYFQS	area with substrate ENVYFQS	area with substrate ENDYFQS	area with substrate ENGYFQS
MGESLFKGPRDYNPISSSICHLTNESDGHTTSLYGIGFGPFIITNKHLFRRNNGTLVVQSLHGVFKVKDTTTLQQHLVDGRDMIIIRMPKDFPPFPQKLKFREPQREERICLVTTNFQTKSMSSMVSDTSCTFPSGDGIFWKHWIQTKDGQCGSPLVSTRDGFIVGIHSASAFTNTNNYFTSVPKNFMELLTNQEAQQWVSGWRLNADSVLWGGHKVFMVKPEEPFQPVKEATQL [N172A]	0.0512	0.0527	0.0458	0.0626	0.0763	0.0459	0.0613	0.0554		
MGESLFKGPRDYNPISSSICHLTNESDGHTTSLYGIGFGPFIITNKHLFRRNNGTLVVQSLHGVFKVKDTTTLQQHLVDGRDMIIIRMPKDFPPFPQKLKFREPQREERICLVTTNFQTKSMSSMVSDTSCTFPSGDGIFWKHWIQTKDGQCGSPLVSTRDGFIVGIHSASHFTNTNNYFTSVPKNFMELLTNQEAQQWVSGWRLNADSVLWGGHKVFMVKPEEPFQPVKEATQL [N172H]	0.0471	0.0607				0.0597	0.0894		0.0483	0.0541
MGESLFKGPRDYNPISSSICHLTNESDGHTTSLYGIGFGPFIITNKHLFRRNNGTLVVQSLHGVFKVKDTTTLQQHLVDGRDMIIIRMPKDFPPFPQKLKFREPQREERICLVTTNFQTKSMSSMVSDTSCTFPSGDGIFWKHWIQTKDGQCGSPLVSTRDGFIVGIHSASPFTNTNNYFTSVPKNFMELLTNQEAQQWVSGWRLNADSVLWGGHKVFMVKPEEPFQPVKEATQL [N172P]	0.0667				0.0568	0.0812		0.0605	0.0636	0.0706
MGESLFKGPRDYNPISSSICHLTNESDGHTTSLYGIGFGPFIITNKHLFRRNNGTLVVQSLHGVFKVKDTTTLQQHLVDGRDMIIIRMPKDFPPFPQKLKFREPQREERICLVTTNFQTKSMSSMVSDTSCTFPSGDGIFWKHWIQTKDGQCGSPLVSTRDGFIVGIHSASVFTNTNNYFTSVPKNFMELLTNQEAQQWVSGWRLNADSVLWGGHKVFMVKPEEPFQPVKEATQL [N172V]	0.0589	0.0744	0.0793			0.0675		0.0477	0.0651	
MGESLFKGPRDYNPISSSICHLTNESDGHTTSLYGIGFGPFIITNKHLFRRNNGTLVVQSLHGVFKVKDTTTLQQHLVDGRDMIIIRMPKDFPPFPQKLKFREPQREERICLVTTNFQTKSMSSMVSDTSCTFPSGDGIFWKHWIQTKDGQCGSPLVSTRDGFIVGIHSASNFCNTNNYFTSVPKNFMELLTNQEAQQWVSGWRLNADSVLWGGHKVFMVKPEEPFQPVKEATQL [T174C]	0.0567		0.0607	0.0997	0.0615	0.0635	0.0343	0.0707	0.0561	
MGESLFKGPRDYNPISSSICHLTNESDGHTTSLYGIGFGPFIITNKHLFRRNNGTLVVQSLHGVFKVKDTTTLQQHLVDGRDMIIIRMPKDFPPFPQKLKFREPQREERICLVTTNFQTKSMSSMVSDTSCTFPSGDGIFWKHWIQTKDGQCGSPLVSTRDGFIVGIHSASNFTATNNYFTSVPKNFMELLTNQEAQQWVSGWRLNADSVLWGGHKVFMVKPEEPFQPVKEATQL [N175A]	0.0571	0.0662	0.0587	0.0683	0.0655	0.0721	0.0608	0.0619		0.0602
MGESLFKGPRDYNPISSSICHLTNESDGHTTSLYGIGFGPFIITNKHLFRRNNGTLVVQSLHGVFKVKDTTTLQQHLVDGRDMIIIRMPKDFPPFPQKLKFREPQREERICLVTTNFQTKSMSSMVSDTSCTFPSGDGIFWKHWIQTKDGQCGSPLVSTRDGFIVGIHSASNFTQTNNYFTSVPKNFMELLTNQEAQQWVSGWRLNADSVLWGGHKVFMVKPEEPFQPVKEATQL [N175Q]	0.0623	0.0596		0.114		0.0395	0.0733		0.0792	
MGESLFKGPRDYNPISSSICHLTNESDGHTTSLYGIGFGPFIITNKHLFRRNNGTLVVQSLHGVFKVKDTTTLQQHLVDGRDMIIIRMPKDFPPFPQKLKFREPQREERICLVTTNFQTKSMSSMVSDTSCTFPSGDGIFWKHWIQTKDGQCGSPLVSTRDGFIVGIHSASNFTNTGNYFTSVPKNFMELLTNQEAQQWVSGWRLNADSVLWGGHKVFMVKPEEPFQPVKEATQL [N177G]	0.0405	0.101		0.0738	0.0667	0.0446		0.0561		
MGESLFKGPRDYNPISSSICHLTNESDGHTTSLYGIGFGPFIITNKHLFRRNNGTLVVQSLHGVFKVKDTTTLQQHLVDGRDMIIIRMPKDFPPFPQKLKFREPQREERICLVTTNFQTKSMSSMVSDTSCTFPSGDGIFWKHWIQTKDGQCGSPLVSTRDGFIVGIHSASNFTNTMNYFTSVPKNFMELLTNQEAQQWVSGWRLNADSVLWGGHKVFMVKPEEPFQPVKEATQL [N177M]	0.0642	0.0598			0.0646	0.0493				

Same assay, conditions: temperature: 34 °C; time window: 0-4 h after rhamnose induction

Variant	area with substrate ENPYFQS	area with substrate ENEYFQS	area with substrate ENSYFQS	area with substrate ENWYFQS	area with substrate ENFYFQS	area with substrate ENMYFQS	area with substrate ENTYFQS	area with substrate ENNYFQS
MGESLFKGPRDYNPISSSICHLTNESDGHTTSLYGIGFGPFIITNKHLFRRNNGTLVVQSLHGVFKVKDTTTLQQHLVDGRDMIIIRMPKDFPPFPQKLKFREPQREERICLVTTNFQTKSMSSMVSDTSCTFPSGDGIFWKHWIQTKDGQCGSPLVSTRDGFIVGIHSASHFTNTNNYFTSVPKNFMELLTNQEAQQWVSGWRLNADSVLWGGHKVFMVKPEEPFQPVKEATQL [N172H]	0.0214							
MGESLFKGPRDYNPISSSICHLTNESDGHTTSLYGIGFGPFIITNKHLFRRNNGTLVVQSLHGVFKVKDTTTLQQHLVDGRDMIIIRMPKDFPPFPQKLKFREPQREERICLVTTNFQTKSMSSMVSDTSCTFPSGDGIFWKHWIQTKDGQCGSPLVSTRDGFIVGIHSASPFTNTNNYFTSVPKNFMELLTNQEAQQWVSGWRLNADSVLWGGHKVFMVKPEEPFQPVKEATQL [N172P]		0.0666	0.0663	0.0073				
MGESLFKGPRDYNPISSSICHLTNESDGHTTSLYGIGFGPFIITNKHLFRRNNGTLVVQSLHGVFKVKDTTTLQQHLVDGRDMIIIRMPKDFPPFPQKLKFREPQREERICLVTTNFQTKSMSSMVSDTSCTFPSGDGIFWKHWIQTKDGQCGSPLVSTRDGFIVGIHSASVFTNTNNYFTSVPKNFMELLTNQEAQQWVSGWRLNADSVLWGGHKVFMVKPEEPFQPVKEATQL [N172V]		0.0587		0.0479	0.0515			
MGESLFKGPRDYNPISSSICHLTNESDGHTTSLYGIGFGPFIITNKHLFRRNNGTLVVQSLHGVFKVKDTTTLQQHLVDGRDMIIIRMPKDFPPFPQKLKFREPQREERICLVTTNFQTKSMSSMVSDTSCTFPSGDGIFWKHWIQTKDGQCGSPLVSTRDGFIVGIHSASNFCNTNNYFTSVPKNFMELLTNQEAQQWVSGWRLNADSVLWGGHKVFMVKPEEPFQPVKEATQL [T174C]	0.0671	0.0538	0.0477		0.0595	0.0663	0.0599	
MGESLFKGPRDYNPISSSICHLTNESDGHTTSLYGIGFGPFIITNKHLFRRNNGTLVVQSLHGVFKVKDTTTLQQHLVDGRDMIIIRMPKDFPPFPQKLKFREPQREERICLVTTNFQTKSMSSMVSDTSCTFPSGDGIFWKHWIQTKDGQCGSPLVSTRDGFIVGIHSASNFTATNNYFTSVPKNFMELLTNQEAQQWVSGWRLNADSVLWGGHKVFMVKPEEPFQPVKEATQL [N175A]			0.0732		0.0564	0.0917	0.0481	0.0436
MGESLFKGPRDYNPISSSICHLTNESDGHTTSLYGIGFGPFIITNKHLFRRNNGTLVVQSLHGVFKVKDTTTLQQHLVDGRDMIIIRMPKDFPPFPQKLKFREPQREERICLVTTNFQTKSMSSMVSDTSCTFPSGDGIFWKHWIQTKDGQCGSPLVSTRDGFIVGIHSASNFTQTNNYFTSVPKNFMELLTNQEAQQWVSGWRLNADSVLWGGHKVFMVKPEEPFQPVKEATQL [N175Q]	0.0614		0.0532				0.046	
MGESLFKGPRDYNPISSSICHLTNESDGHTTSLYGIGFGPFIITNKHLFRRNNGTLVVQSLHGVFKVKDTTTLQQHLVDGRDMIIIRMPKDFPPFPQKLKFREPQREERICLVTTNFQTKSMSSMVSDTSCTFPSGDGIFWKHWIQTKDGQCGSPLVSTRDGFIVGIHSASNFTNTGNYFTSVPKNFMELLTNQEAQQWVSGWRLNADSVLWGGHKVFMVKPEEPFQPVKEATQL [N177G]		0.0512	0.0632		0.0535			
MGESLFKGPRDYNPISSSICHLTNESDGHTTSLYGIGFGPFIITNKHLFRRNNGTLVVQSLHGVFKVKDTTTLQQHLVDGRDMIIIRMPKDFPPFPQKLKFREPQREERICLVTTNFQTKSMSSMVSDTSCTFPSGDGIFWKHWIQTKDGQCGSPLVSTRDGFIVGIHSASNFTNTMNYFTSVPKNFMELLTNQEAQQWVSGWRLNADSVLWGGHKVFMVKPEEPFQPVKEATQL [N177M]	0.0482	0.0619	0.0543				0.0806	0.0677
